# The supplement of paper PMC8728848
# The list shows a part of the results.
# What was measured:
# Assay in all cases: glycan array binding signal (z-score within array); higher = stronger binding
# Details in all cases: glycan notation: IUPAC condensed, linker removed
# Fuc(a1-2)Gal = target: Fuc(a1-2)Gal
# Method in brief: (§1)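 Columns mapping to the same glycan were averaged after glycan names were converted to IUPAC-condensed notation. The data come from 3228 arrays in the Consortium for Functional Glycomics database, limited to those with an available protein sequence. Binding is reported as a within-array Z-score averaged across arrays of one protein sequence and across linkers.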
# Fuc(a1-2)Gal(b1-3)GalNAc = target: Fuc(a1-2)Gal(b1-3)GalNAc
# Method in brief: as §1
# [1] = target: Fuc(a1-2)Gal(b1-3)GalNAc(a1-3)[Fuc(a1-2)]Gal(b1-4)Glc
# Method in brief: as §1
# [2] = target: Fuc(a1-2)Gal(b1-3)GalNAc(a1-3)[Fuc(a1-2)]Gal(b1-4)GlcNAc
# Method in brief: as §1
# [3] = target: Fuc(a1-2)Gal(b1-3)GalNAc(b1-3)Gal
# Method in brief: as §1
# [4] = target: Fuc(a1-2)Gal(b1-3)GalNAc(b1-3)Gal(a1-4)Gal(b1-4)Glc
# Method in brief: as §1
# [5] = target: Fuc(a1-2)Gal(b1-3)GalNAc(b1-4)[Neu5Ac(a2-3)]Gal(b1-4)Glc
# Method in brief: as §1
# Fuc(a1-2)Gal(b1-3)GlcNAc = target: Fuc(a1-2)Gal(b1-3)GlcNAc
# Method in brief: as §1
# [6] = target: Fuc(a1-2)Gal(b1-3)GlcNAc(b1-2)Man(a1-3)[Fuc(a1-2)Gal(b1-3)GlcNAc(b1-2)Man(a1-6)]Man(b1-4)GlcNAc(b1-4)GlcNAc
# Method in brief: as §1
# [7] = target: Fuc(a1-2)Gal(b1-3)GlcNAc(b1-2)Man(a1-3)[Fuc(a1-2)Gal(b1-3)GlcNAc(b1-2)Man(a1-6)]Man(b1-4)GlcNAc(b1-4)[Fuc(a1-6)]GlcNAc
# Method in brief: as §1
# [8] = target: Fuc(a1-2)Gal(b1-3)GlcNAc(b1-3)Gal(b1-4)Glc
# Method in brief: as §1
# [9] = target: Fuc(a1-2)Gal(b1-3)GlcNAc(b1-3)GalNAc
# Method in brief: as §1
# [10] = target: Fuc(a1-2)Gal(b1-3)GlcNAc(b1-3)[Fuc(a1-3)[Gal(b1-4)]GlcNAc(b1-6)]Gal(b1-4)Glc
# Method in brief: as §1
# [11] = target: Fuc(a1-2)Gal(b1-3)GlcNAc(b1-3)[Gal(b1-4)GlcNAc(b1-6)]Gal(b1-4)Glc
# Method in brief: as §1
# [12] = target: Fuc(a1-2)Gal(b1-3)GlcNAc(b1-3)[Neu5Ac(a2-6)Gal(b1-4)GlcNAc(b1-6)]Gal(b1-4)Glc
# Method in brief: as §1
# [13] = target: Fuc(a1-2)Gal(b1-3)[Fuc(a1-4)]GlcNAc
# Method in brief: as §1
# [14] = target: Fuc(a1-2)Gal(b1-3)[Fuc(a1-4)]GlcNAc(b1-2)Man(a1-3)[Fuc(a1-2)Gal(b1-3)[Fuc(a1-4)]GlcNAc(b1-2)Man(a1-6)]Man(b1-4)GlcNAc(b1-4)GlcNAc
# Method in brief: as §1
# [15] = target: Fuc(a1-2)Gal(b1-3)[Fuc(a1-4)]GlcNAc(b1-3)[Fuc(a1-3)[Gal(b1-4)]GlcNAc(b1-6)]Gal(b1-4)Glc
# Method in brief: as §1
# [16] = target: Fuc(a1-2)Gal(b1-3)[Fuc(a1-4)]GlcNAc(b1-3)[Gal(b1-4)GlcNAc(b1-6)]Gal(b1-4)Glc
# Method in brief: as §1
# Fuc(a1-2)Gal(b1-4)Glc = target: Fuc(a1-2)Gal(b1-4)Glc
# Method in brief: as §1
# Fuc(a1-2)Gal(b1-4)Glc6S = target: Fuc(a1-2)Gal(b1-4)Glc6S
# Method in brief: as §1
# Fuc(a1-2)Gal(b1-4)GlcNAc = target: Fuc(a1-2)Gal(b1-4)GlcNAc
# Method in brief: as §1
# [17] = target: Fuc(a1-2)Gal(b1-4)GlcNAc(b1-2)Man(a1-3)[Fuc(a1-2)Gal(b1-4)GlcNAc(b1-2)Man(a1-6)]Man(b1-4)GlcNAc(b1-4)GlcNAc
# Method in brief: as §1
# [18] = target: Fuc(a1-2)Gal(b1-4)GlcNAc(b1-2)Man(a1-3)[Fuc(a1-2)Gal(b1-4)GlcNAc(b1-2)Man(a1-6)]Man(b1-4)GlcNAc(b1-4)[Fuc(a1-6)]GlcNAc
# Method in brief: as §1
# [19] = target: Fuc(a1-2)Gal(b1-4)GlcNAc(b1-2)[Fuc(a1-2)Gal(b1-4)GlcNAc(b1-4)]Man(a1-3)[Fuc(a1-2)Gal(b1-4)GlcNAc(b1-2)Man(a1-6)]Man(b1-4)GlcNAc(b1-4)GlcNAc
# Method in brief: as §1
# [20] = target: Fuc(a1-2)Gal(b1-4)GlcNAc(b1-3)Gal(b1-4)GlcNAc
# Method in brief: as §1
# [21] = target: Fuc(a1-2)Gal(b1-4)GlcNAc(b1-3)Gal(b1-4)GlcNAc(b1-3)Gal(b1-4)GlcNAc
# Method in brief: as §1
# [22] = target: Fuc(a1-2)Gal(b1-4)GlcNAc(b1-3)GalNAc
# Method in brief: as §1
# [23] = target: Fuc(a1-2)Gal(b1-4)GlcNAc(b1-3)[Fuc(a1-2)Gal(b1-4)GlcNAc(b1-6)]GalNAc
# Method in brief: as §1
# [24] = target: Fuc(a1-2)Gal(b1-4)GlcNAc6S
# Method in brief: as §1
# [25] = target: Fuc(a1-2)Gal(b1-4)[Fuc(a1-3)]GlcNAc
# Method in brief: as §1
# [26] = target: Fuc(a1-2)Gal(b1-4)[Fuc(a1-3)]GlcNAc(b1-2)Man(a1-3)[Fuc(a1-2)Gal(b1-4)[Fuc(a1-3)]GlcNAc(b1-2)Man(a1-6)]Man(b1-4)GlcNAc(b1-4)GlcNAc
# Method in brief: as §1
# [27] = target: Fuc(a1-2)Gal(b1-4)[Fuc(a1-3)]GlcNAc(b1-2)[Fuc(a1-2)Gal(b1-4)[Fuc(a1-3)]GlcNAc(b1-4)]Man(a1-3)[Fuc(a1-2)Gal(b1-4)[Fuc(a1-3)]GlcNAc(b1-2)Man(a1-6)]Man(b1-4)GlcNAc(b1-4)GlcNAc
# Method in brief: as §1
# [28] = target: Fuc(a1-2)Gal(b1-4)[Fuc(a1-3)]GlcNAc(b1-3)Gal(b1-4)[Fuc(a1-3)]GlcNAc
# Method in brief: as §1
# [29] = target: Fuc(a1-2)Gal(b1-4)[Fuc(a1-3)]GlcNAc(b1-3)Gal(b1-4)[Fuc(a1-3)]GlcNAc(b1-3)Gal(b1-4)[Fuc(a1-3)]GlcNAc
# Method in brief: as §1
# [30] = target: Fuc(a1-2)Gal(b1-4)[Fuc(a1-3)]GlcNAc(b1-3)GalNAc
# Method in brief: as §1
# Fuc(a1-2)Gal6S(b1-4)Glc = target: Fuc(a1-2)Gal6S(b1-4)Glc
# Method in brief: as §1
# [31] = target: Fuc(a1-2)Gal6S(b1-4)Glc6S
# Method in brief: as §1
# [32] = target: Fuc(a1-2)Gal6S(b1-4)GlcNAc
# Method in brief: as §1
# Fuc(a1-2)[Gal(a1-3)]Gal = target: Fuc(a1-2)[Gal(a1-3)]Gal
# Method in brief: as §1
# [33] = target: Fuc(a1-2)[Gal(a1-3)]Gal(b1-3)GalNAc
# Method in brief: as §1
# [34] = target: Fuc(a1-2)[Gal(a1-3)]Gal(b1-3)GlcNAc
# Method in brief: as §1
# [35] = target: Fuc(a1-2)[Gal(a1-3)]Gal(b1-3)GlcNAc(b1-2)Man(a1-3)[Fuc(a1-2)[Gal(a1-3)]Gal(b1-3)GlcNAc(b1-2)Man(a1-6)]Man(b1-4)GlcNAc(b1-4)GlcNAc
# Method in brief: as §1
# [36] = target: Fuc(a1-2)[Gal(a1-3)]Gal(b1-3)GlcNAc(b1-2)Man(a1-3)[Fuc(a1-2)[Gal(a1-3)]Gal(b1-3)GlcNAc(b1-2)Man(a1-6)]Man(b1-4)GlcNAc(b1-4)[Fuc(a1-6)]GlcNAc
# Method in brief: as §1
# [37] = target: Fuc(a1-2)[Gal(a1-3)]Gal(b1-3)GlcNAc(b1-3)GalNAc
# Method in brief: as §1
binder,measurement,setting,value
"RS2L (Ralstonia solanacearum), B5RXL5_RALSO (protein) MAQQGVFTLPANTSFGVTAFANAANTQTIQVLVDNVVKATFTGSGTSDKLLGSQVLNSGSGAIKIQVSVNGKPSDLVSNQTILANKLNFAMVGSEDGTDNDYNDGIAVLNWPLG",glycan array binding signal (z-score),Fuc(a1-2)Gal,0.021
same,glycan array binding signal (z-score),Fuc(a1-2)Gal(b1-3)GalNAc,-0.183
same,glycan array binding signal (z-score),[1],-0.219
same,glycan array binding signal (z-score),[2],-0.236
same,glycan array binding signal (z-score),[3],-0.248
same,glycan array binding signal (z-score),[4],-0.224
same,glycan array binding signal (z-score),[5],-0.211
same,glycan array binding signal (z-score),Fuc(a1-2)Gal(b1-3)GlcNAc,-0.216
same,glycan array binding signal (z-score),[6],0.317
same,glycan array binding signal (z-score),[7],0.443
same,glycan array binding signal (z-score),[8],-0.174
same,glycan array binding signal (z-score),[9],-0.211
same,glycan array binding signal (z-score),[10],-0.192
same,glycan array binding signal (z-score),[11],-0.211
same,glycan array binding signal (z-score),[12],-0.18
same,glycan array binding signal (z-score),[13],-0.189
same,glycan array binding signal (z-score),[14],-0.101
same,glycan array binding signal (z-score),[15],-0.194
same,glycan array binding signal (z-score),[16],-0.157
same,glycan array binding signal (z-score),Fuc(a1-2)Gal(b1-4)Glc,-0.213
same,glycan array binding signal (z-score),Fuc(a1-2)Gal(b1-4)Glc6S,-0.066
same,glycan array binding signal (z-score),Fuc(a1-2)Gal(b1-4)GlcNAc,-0.033
same,glycan array binding signal (z-score),[17],0.128
same,glycan array binding signal (z-score),[18],0.476
same,glycan array binding signal (z-score),[19],-0.027
same,glycan array binding signal (z-score),[20],-0.148
same,glycan array binding signal (z-score),[21],0.211
same,glycan array binding signal (z-score),[22],-0.205
same,glycan array binding signal (z-score),[23],-0.141
same,glycan array binding signal (z-score),[24],-0.165
same,glycan array binding signal (z-score),[25],0.025
same,glycan array binding signal (z-score),[26],-0.237
same,glycan array binding signal (z-score),[27],-0.175
same,glycan array binding signal (z-score),[28],0.111
same,glycan array binding signal (z-score),[29],-0.005
same,glycan array binding signal (z-score),[30],-0.224
same,glycan array binding signal (z-score),Fuc(a1-2)Gal6S(b1-4)Glc,-0.15
same,glycan array binding signal (z-score),[31],0.115
same,glycan array binding signal (z-score),[32],0.082
same,glycan array binding signal (z-score),Fuc(a1-2)[Gal(a1-3)]Gal,-0.165
same,glycan array binding signal (z-score),[33],-0.241
same,glycan array binding signal (z-score),[34],-0.244
same,glycan array binding signal (z-score),[35],0.26
same,glycan array binding signal (z-score),[36],1.19
same,glycan array binding signal (z-score),[37],-0.241
